From ChEMBL document CHEMBL4888484, “Replenishing the malaria drug discovery pipeline: Screening and hit evaluation of the MMV Hit Generation Library 1 (HGL1) against asexual blood stage Plasmodium falciparum ,using a nano luciferase reporter read-out” (2022)
Screen size: about 150,000 compounds; about 540 (0.36%) showed an effect of 50% or more. The list shows a part of the results.

System: Plasmodium falciparum
Experiment: Primary screen in NF54 nanoGlo assay, in single point, at 2uM, 72h; a lower Z score goes with more inhibition
Format: functional, Erythrocyte
Conditions: timepoint 72 hour

SMILES	% Inhibition [%]	Z score
Cn1nccc1C(=O)NC[C@H]1CCCN(c2ccncc2)C1	14	-2.14
O=C(NCc1cccnc1N1CCCCCCC1)c1ncoc1C1CC1	10	-0.95
O=C(NCC1(CO)CC1)C1(c2cccs2)CCCCC1	10	-1.88
CN(C)c1ccc(C(=O)N2CCOc3ccccc3[C@@H]2CO)cc1	-4	0.7
Cc1nn(C)c2nc(-c3ccccn3)nc(N3CCC[C@H](CO)C3)c12	2	-0.25
CC(C)c1cc(C(=O)N2CCN(C(C)C)CC2)nc2ccnn12	-6	0.97
CCn1c(C)nnc1COc1ccc(S(=O)(=O)N2CCCC2)cc1	5	-0.65
NC(=O)[C@@H]1CCCCN1C(=O)c1ccnc2c1CC(=O)N2	-13	1.66
Cn1cnnc1-c1cncc(NCc2ccc(OC(F)F)cc2)c1	-11	1.77
COc1cnc(N2CCC3(CC2)CC(=O)N(Cc2cccc(OC)c2)C3)nc1	2	-0.34
CCOC(=O)c1cnc(NC(=O)c2ccc(S(C)(=O)=O)cc2)[nH]1	-6	0.76
Cc1[nH]c(=O)c(C#N)c(C)c1CCC(=O)N(C)CC1CCCCC1	26	-3.49
O=C(Nc1cccc(-c2ccsc2)c1)NC1CC2CCC1O2 (stereo not drawn)	7	-0.93
O=C(NCCCOCC1CC1)N1CCN(C2CC2)CC1	24	-2.66
O=C(c1ccc(F)cc1Cl)N1CC[C@H](c2ccsc2)C1	-7	1.32
COc1ccc(C(c2c[nH]c3ccccc23)c2c[nH]c3ccccc23)c2ccccc12	-13	2.42
O=C1[C@@H]2CN(CCn3ccnc3)CCN2C(=O)N1c1ccccc1	-18	1.61
COc1ncc(Br)cc1CNC(=O)NC[C@H]1CCN1C1CC1	2	-0.37
COc1ccc(S(=O)(=O)Oc2ccccc2CN(CC2CC2)C(C)=O)cc1	-9	0.91
CC1CN(C(=O)CS(=O)(=O)Cc2nnc(C3CCC3)n2C)CC(C)O1 (stereo not drawn)	-9	1.32
O=C(NCC1(c2ccccc2)CC1)C1=NN(c2ccccc2)C(=O)CN1	12	-1.89
COc1ccc([C@@H](NC(=O)N(C)Cc2cccnc2)C(F)F)cc1F	-11	1.34
COc1cccc(CNc2nccc(N(C)C)n2)c1OC	-8	1.19
CC(=O)N1CCC(N[C@H]2CCCc3c2cnn3-c2ccc(C)c(C)c2)CC1	-12	1.64
COc1cc(C(=O)NC2CC3CCC(C2)S3(=O)=O)ccn1 (stereo not drawn)	-7	0.91
Cc1ccc2nc(-c3ccc(N4C(=O)C[C@H](N5CCN(CCOCCO)CC5)C4=O)cc3)sc2c1	-12	2.23
O=C(N[C@H]1CCOC12CCOCC2)c1ccnc2cc(Cl)ccc12	-1	0.11

SMILES	% Inhibition [%]	Z score
O=C(NCc1ccc2c(c1)OCO2)[C@H]1CCCN(c2nc3cccnc3s2)C1	-14	1.23
O=C(CCN1CCCCO1)N1CCC[C@H](Nc2ccc3c(c2)OCCO3)C1	-5	0.92
C=CCNC(=O)COc1cccc(C(C)C)c1	5	-0.65
O[C@H]1CC[C@H](Nc2ncc(Cl)cn2)CC1	2	-0.21
c1nc(CCNc2nncc(-c3ccc(C4CCCCC4)cc3)n2)cs1	-3	0.39
CC(C)(C)N1CCN(C[C@H]2CCCN(S(C)(=O)=O)C2)c2ccccc21	-8	1.15
Cc1nn(-c2ncccn2)c2c1[C@@H](c1ccccc1)CC(=O)N2	41	-4.6
O=C(Nc1nc(CCc2c[nH]c3ccccc23)n[nH]1)c1cccnc1	36	-1.09
Cc1cc(C)n(-c2ccc(N3CCC(NCc4ccoc4)CC3)cc2)n1	-18	1.59
Nc1nnnn1CC(=O)NCCCc1ccccc1	2	-0.47
O=C1CC[C@H](C(=O)N2CCCO2)CN1CCc1ccccc1	-5	0.69
COC(=O)N[C@@H](C)C(=O)NCCn1nc(C(F)(F)F)cc1C	-19	2.4
c1cncc(Cc2nnc3n2CCN(c2nccc(C4CCCC4)n2)CC3)c1	3	-0.51
C[C@@H](c1cccc(-c2nccn2-c2ccc(S(N)(=O)=O)cc2)c1)N(C)C	-15	2.91
CC(CCc1ccccc1)NC(=O)NC1CC(=O)N(c2ccccc2)C1 (stereo not drawn)	15	-1.96
Cc1ccc(-n2cccc2CC(=O)NCCN2CCCCC2)cc1	0	0.04
O=S1(=O)CCC[C@H](NS(=O)(=O)c2ccco2)C1	-5	0.94
O=C(O)[C@@]1(CC2CC2)CCCN(Cc2ccc3c(c2)OCCO3)C1	8	-1.3
Cc1nn(-c2nc3ccccc3[nH]2)c2c1[C@@H](c1cccnc1)CC(=O)N2	68	-14.32
C[C@H](NC(=O)c1ccc(C#N)cn1)c1cccc(N2CCCC2)c1	1	-0.15
Cc1noc(C)c1CCC(=O)Nc1n[nH]c(CCC2CCCC2)n1	7	-0.81
CCN(CCn1cccn1)Cc1c(C(=O)N(C)C)nc2ccc(Cl)cn12	-5	0.64
CN(C)c1ncc2c(=O)n(C)ccc2n1	-9	1.34
COc1ccc(N2CCN(C(=O)[C@H]3CCC[C@H]3NC(=O)c3ccncc3)CC2)cc1	-13	1.67
COc1ccccc1-c1nc2c([nH]1)c(C)nn2[C@@H](C)C1CC1	-3	0.39
COc1ccc(C(=O)N2C[C@@H](F)[C@@H](OCc3nc4ccccc4[nH]3)C2)cc1	14	-1.65
CCn1nc(CC2CCN(C)CC2)nc1[C@H]1CC(=O)N(C2CCCC2)C1	1	-0.15
